The chains are these.
B1: fabB I170W (protein)
chain: MKRAVITGLGIVSSIGNNQQEVLASLREGRSGITFSQELKDSGMRSHVWGNVKLDTTGLIDRKVVRFMSDASIYAFLSMEQAIADAGLSPEAYQNNPRVGLIAGSGGGSPRFQVFGADAMRGPRGLKAVGPYVVTKAMASGVSACLATPFKIHGVNYSISSACATSAHCWGNAVEQIQLGKQDIVFAGGGEELCWEMACEFDAMGALSTKYNDTPEKASRTYDAHRDGFVIAGGGGMVVVEELEHALARGAHIYAEIVGYGATSDGADMVAPSGEGAVRCMKMAMHGVDTPIDYLNSHGTSTPVGDVKELAAIREVFGDKSPAISATKAMTGHSLGAAGVQEAIYSLLMLEHGFIAPSINIEELDEQAAGLNIVTETTDRELTTVMSNSFGFGGTNATLVMRKLKD
B2: fabB V174W (protein)
chain: B1 chain with W170I, V174W
B3: fabB V174D (protein)
chain: B1 chain with W170I, V174D
B4: fabB V174A (protein)
chain: B1 chain with W170I, V174A
B5: fabB V185A (protein)
chain: B1 chain with W170I, V185A
B6: fabB V185W (protein)
chain: B1 chain with W170I, V185W

Where a chain is given by its changes, count along the chain named. Names may count otherwise. ± gives the standard deviation of the averaged measurements. Laboratory Escherichia coli strains with one amino-acid change in an essential protein, pooled on minimal glucose agar with carbenicillin or gentamicin at twice the control MIC (plus kanamycin and chloramphenicol for the plasmids), 48 h. Fold change of barcode share against drug-free plates; higher = less susceptible. Active = above 20 in both replicates (the paper's putatively resistant). '<' = one read or none on drug, '>' = one read or none on a drug-free plate. Shares are relative, so most strains fall below 1 when a few take over. Listed are strains with at least 15 reads on both drug-free plates, and hits; most hits rest on fewer reference reads. Replicate rank correlation about 0.5. Edits are read from barcodes.

One data set concerns the target Escherichia coli (laboratory strain). As to the kind of experiment: barcode share on antibiotic plates over drug-free plates; higher = less susceptible. The note with it: antibiotic: carbenicillin; 2× MIC (3.1 µg/mL). Here is the method:
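A pool of E. coli strains, each edited to carry one amino-acid change in an essential protein, was grown for 48 h on minimal glucose agar with or without antibiotic; strain barcodes were sequenced; mean of two replicates.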
In the case of B1, the “fold change of barcode share” value came out at 0.683 ± 0.42.
The same measure, in the same setting: the same measure for B2: 0.287 ± 0.16; for B3: 0.246 ± 0.071.
Same read-out and setting: the figure for B4 is 0.372 ± 0.059; for B5 it is 0.558 ± 0.48.
Consider B6, for which the “fold change of barcode share” value turned out to be 0.327 ± 0.19.

Still in this data set, the particulars now being: antibiotic: gentamicin; 2× MIC (MIC 0.45 µg/mL).
Turning to B1, the “fold change of barcode share” value amounted to 0.0694 ± 0.049.
As to B2, the “fold change of barcode share” value was under 0.00671.
The same measure, in the same setting: the same measure for B3: 0.00923 ± 0.0039; for B4: under 0.00682; for B5: under 0.00813.
Still for that read-out and setting: the figure for B6 is under 0.00557.

The values are drawn from the supplement of paper PMC11876631.
